Measured values: the supplement of paper PMC3334620
Over roughly 33,000 sequences, “E-score (-0.5 to 0.5)” has its median near -0.035; the highest 2% begin near 0.35. This is one part of the list.

target: T1, Pdr3 (UniProt P33200); test: PBM E-score (8-mer binding enrichment) (E-score (-0.5 to 0.5)); higher = stronger / more preferred TF binding; most listed sequences are background and not binding sites; conditions: protein concentration: 200 nM; construct: GST-full length
T1 sequence: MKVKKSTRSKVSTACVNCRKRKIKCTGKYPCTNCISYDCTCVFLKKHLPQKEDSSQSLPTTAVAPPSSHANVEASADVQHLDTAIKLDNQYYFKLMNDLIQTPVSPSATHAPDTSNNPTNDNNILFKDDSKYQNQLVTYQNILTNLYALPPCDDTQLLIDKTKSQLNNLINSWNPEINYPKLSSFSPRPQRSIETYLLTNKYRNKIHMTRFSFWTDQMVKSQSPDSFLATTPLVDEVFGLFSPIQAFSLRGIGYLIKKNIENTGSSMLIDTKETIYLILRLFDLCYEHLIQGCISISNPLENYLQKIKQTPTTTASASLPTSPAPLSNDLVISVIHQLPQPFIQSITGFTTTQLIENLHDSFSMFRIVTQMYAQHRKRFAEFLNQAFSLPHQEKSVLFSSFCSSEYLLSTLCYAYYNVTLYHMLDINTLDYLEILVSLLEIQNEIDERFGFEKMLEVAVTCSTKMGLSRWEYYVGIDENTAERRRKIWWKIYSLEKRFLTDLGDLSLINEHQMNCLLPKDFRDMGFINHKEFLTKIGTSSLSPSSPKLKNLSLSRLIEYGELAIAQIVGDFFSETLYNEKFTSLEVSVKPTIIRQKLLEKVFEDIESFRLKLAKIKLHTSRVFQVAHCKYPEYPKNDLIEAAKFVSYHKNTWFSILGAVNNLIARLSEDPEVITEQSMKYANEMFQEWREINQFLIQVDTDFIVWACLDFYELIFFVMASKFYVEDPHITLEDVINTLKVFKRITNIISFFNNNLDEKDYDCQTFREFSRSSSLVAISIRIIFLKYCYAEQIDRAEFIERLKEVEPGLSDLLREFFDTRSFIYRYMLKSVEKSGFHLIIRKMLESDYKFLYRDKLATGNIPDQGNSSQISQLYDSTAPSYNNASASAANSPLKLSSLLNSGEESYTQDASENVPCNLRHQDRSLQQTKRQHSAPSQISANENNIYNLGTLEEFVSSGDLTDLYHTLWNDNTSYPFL
In short: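 Detection of bound protein used fluorescent anti-GST, with scans normalised by masliner. The proteins were GST-tagged yeast transcription factors applied at about 100-200 nM to universal all-10-mer Agilent arrays made double-stranded by primer extension. Each ungapped eight-base word, pooled with its reverse complement, was scored with an E-score from the Universal PBM Analysis Suite.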

| Sequence | PBM E-score |
| --- | --- |
| CCCGGAAC | 0.467 |
| AACTGTAA | 0.0127 |
| GAGGCCGC | -0.0141 |
| AAGAAACG | 0.0474 |
| TCAGTCGA | 0.0772 |
| CCTGAGAA | -0.204 |
| CAGAGCGG | 0.185 |
| CCTGCCTA | -0.152 |
| AGTTGTTG | -0.0777 |
| ATATACTA | 0.179 |
| CCCGTGTA | 0.113 |
| GAAGGCGA | 0.0906 |
| ATCATACC | 0.0809 |
| GGCTACCC | -0.18 |
| GGATCCGA | 0.399 |
| GACATGTC | 0.0183 |
| ATTATCTA | -0.0477 |
| ACCCGGAC | 0.317 |
| AAAAAACA | 0.0589 |
| GTTATGCA | -0.223 |
| AGGTATTC | -0.0952 |
| AATACGCA | -0.128 |
| ACGCGGGC | 0.17 |
| ACACCAGG | -0.174 |
| AAATCAAC | -0.0285 |

| Sequence | PBM E-score |
| --- | --- |
| CTCGCTCC | 0.0762 |
| CCACGGAC | 0.34 |
| CGAGCCAA | -0.0869 |
| AGCGAGCA | -0.189 |
| GTCGCCTA | -0.00145 |
| AGTCGCTA | -0.19 |
| CATAGCCA | -0.0781 |
| CTAGGCCC | -0.0722 |
| AGCGGGTG | 0.196 |
| GATTACAC | -0.0894 |
| GCAAGGGA | -0.0733 |
| ACCTTCAC | -0.185 |
| ATATTATC | 0.0315 |
| CGATAATC | -0.0854 |
| ACGTCACC | -0.0162 |
| GTGGGACA | -0.0693 |
| CAAGTCCC | -0.156 |
| GACCGTAC | -0.152 |
| CACTGAAA | -0.00018 |
| ATGTCCAC | 0.00618 |
| ATCCTATA | -0.0193 |
| CACGGTGA | -0.0232 |
| CTCGGCGC | 0.279 |
| GAGACCTC | -0.00248 |
| CGCCATAG | 0.00518 |

| Sequence | PBM E-score |
| --- | --- |
| ATAGCACC | -0.159 |
| AGGTCTTA | -0.129 |
| ATGTAAAG | -0.0504 |
| CAGCATAG | -0.0785 |
| CAGAGTCG | -0.0369 |
| ACGCAATG | -0.144 |
| CGGCCATA | 0.0189 |
| AGTACGCA | -0.199 |
| AAGAGACG | 0.123 |
| ATGTACCG | -0.0139 |
| AAGGAGTG | -0.0725 |
| ACCAATAT | -0.00757 |
| CAGACTAA | -0.15 |
| CGGCTCTA | 0.111 |
| CTCAGAAA | -0.235 |
| CTTACCCC | -0.12 |
| ACTTGTTG | -0.258 |
| ACACACGC | 0.057 |
| AACCGTGA | -0.0553 |
| ACCTCGCA | -0.164 |
| AACAGCAA | -0.0214 |
| CGCCAAGC | -0.163 |
| AGAGATAC | -0.0254 |
| CAGGAGAG | -0.174 |
| AGGGTGTC | 0.0226 |

| Sequence | PBM E-score |
| --- | --- |
| CCAAGAGG | -0.122 |
| AGAGCAAA | -0.2 |
| AAGATATA | 0.0367 |
| CTGCAACA | 0.00937 |
| CCTGTGTA | -0.178 |
| ATCTATCA | 0.0254 |
| ACTTCTGC | 0.00267 |
| CATGACGC | -0.0957 |
| ATTATGGG | -0.101 |
| CAAGACCA | -0.133 |
| ATAGAATA | 0.0328 |
| AAGGAGGC | -0.192 |
| GTCTGCTA | -0.156 |
| CCCCCTCG | -0.156 |
| ATGACAAG | 0.0563 |
| GAGCCTTA | -0.217 |
| GACTTGGC | -0.212 |
| CGTCGGCC | 0.143 |
| AATACTAT | -0.0458 |
| CGCGGGGA | 0.393 |
| ACCCGTAA | 0.0102 |
| CCCTCGAC | 0.0464 |
| GTACGTAC | -0.133 |
| GTCATTCA | -0.00308 |
| GCAAAACA | -0.0528 |

| Sequence | PBM E-score |
| --- | --- |
| ACGAGAGG | -0.0206 |
| TACTTCTA | -0.195 |
| AATACAGA | 0.0103 |
| CGTACATA | -0.0758 |
| ACCCGACT | 0.135 |
| GCGAATCC | 0.0273 |
| AAGCCGAG | 0.194 |
| AGCGGTCA | 0.0481 |
| TCTATTCA | -0.0967 |
| GGCTGACA | 0.122 |
| CATTCGGC | 0.145 |
| AACGGGTC | 0.113 |
| AGCAAGAT | 0.0287 |
| GTTTTGTA | 0.0261 |
| GACGCGAC | -0.0793 |
| CTCCCTTC | -0.1 |
| CTCTTGAC | -0.139 |
| AAAGCCCG | 0.184 |
| AACATTCG | -0.0545 |
| AATTACCG | 0.115 |
| GTTCAGAA | -0.022 |
| AACAAGAA | -0.113 |
| AGTGGATG | -0.0836 |
| ACAGACCC | 0.0146 |
| TACCTGAA | -0.141 |

| Sequence | PBM E-score |
| --- | --- |
| AAAGGTGG | -0.0649 |
| ACGGCCTA | 0.131 |
| AGATGGCA | 0.0745 |
| ACCTGAGC | -0.039 |
| ACGATTAA | 0.0126 |
| ACTCAGAT | -0.0813 |
| TCCGCGCA | 0.397 |
| AACTATCA | 0.02 |
| CTGCGCGC | 0.229 |
| GTATTACA | -0.0393 |
| CGGTGCCA | -0.115 |
| ATTCTTTG | -0.0525 |
| ATTAAGGA | -0.00828 |
| GCCATTCA | 0.118 |
| AGCTGCGA | -0.00197 |
| GCTGATGA | -0.0355 |
| CTAGTGAA | -0.117 |
| CCAGGGAC | -0.129 |
| ATGTCTTC | -0.231 |
| ACCCAAAC | 0.186 |
| ATCCCCAC | 0.133 |
| CAACAGCA | 0.0291 |
| CAAACGAG | -0.131 |
| ATATTGAA | -0.0397 |
| AATCATAG | 0.0594 |

| Sequence | PBM E-score |
| --- | --- |
| GACCGGAC | 0.28 |
| CTCTAATC | -0.128 |
| CACGAGTC | -0.226 |
| ACCTTCGC | -0.0589 |
| CAGCGGAG | 0.274 |
| CAAAGTGG | -0.215 |
| AGTACGTA | -0.0984 |
| GGTAGACC | 0.0232 |
| GTGACCGA | -0.0949 |
| GACCGACC | 0.0504 |
| AAGAGGCC | 0.00696 |
| AGCGCCCT | 0.0102 |
| GTTCGTGA | -0.187 |
| CAGGTCCA | -0.221 |
| CTTGCGCC | -0.0849 |
| CACCACTG | -0.268 |
| ATCGACGA | 0.128 |
| CCGACTAC | 0.0579 |
| ACGAAGCG | -0.208 |
| ACCGAACG | 0.0972 |
| GCGCGAAA | 0.143 |
| GTAAAAAC | -0.132 |
